Results reported in US12583848B2, “Isoxazole-3-carboxamide derivatives and their use for treatment of diseases caused by virus infection” (Collaborations Pharmaceuticals, Inc., priority 2019, dated 2026).

System: Enterovirus D68 (EV-D68 MP30 PP)
Type: in vivo, AG129 mice
Details: 30 mg/kg/day, day 5 post-infection

Cc1cc(-c2noc(C(F)(F)F)n2)ccc1OCCCc1cc(C(=O)N(C)C)no1 [Compound 8, N,N-dimethyl-5-(3-{2-methyl-4-[5-(trifluoromethyl)-1,2,4-oxadiazol-3-yl]phenoxy}propyl)isoxazole-3-carboxamide]
lung virus titers compared to placebo: reduction in virus titer [passage A] and reduced lung virus titers [passage B]

Some entries of the source have several records that differ or are many. The list is limited to them. There may be further records. Values given together seem to repeat one measurement (runs, samples, wells or individuals). A tag in brackets gives the origin of a value. Letters hold for one entry only.
